According to publication PMC4336329 (PLoS ONE, 2015):
The whole screen tested about 310,000 compounds, of which about 14,000 (4.5%) showed an effect of 50% or more. The effect is printed as a negative number. The list shows a part of the results.

Target: human ether-à-go-go-related gene (hERG) potassium channel (human, UniProt Q12809)
Assay: primary screen, population patch clamp on CHO cells stably expressing hERG
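Note: peak tail current of the secondary pulse compared with the same well before compound.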

Chain of human ether-à-go-go-related gene (hERG) potassium channel (Q12809 whole entry, looked up): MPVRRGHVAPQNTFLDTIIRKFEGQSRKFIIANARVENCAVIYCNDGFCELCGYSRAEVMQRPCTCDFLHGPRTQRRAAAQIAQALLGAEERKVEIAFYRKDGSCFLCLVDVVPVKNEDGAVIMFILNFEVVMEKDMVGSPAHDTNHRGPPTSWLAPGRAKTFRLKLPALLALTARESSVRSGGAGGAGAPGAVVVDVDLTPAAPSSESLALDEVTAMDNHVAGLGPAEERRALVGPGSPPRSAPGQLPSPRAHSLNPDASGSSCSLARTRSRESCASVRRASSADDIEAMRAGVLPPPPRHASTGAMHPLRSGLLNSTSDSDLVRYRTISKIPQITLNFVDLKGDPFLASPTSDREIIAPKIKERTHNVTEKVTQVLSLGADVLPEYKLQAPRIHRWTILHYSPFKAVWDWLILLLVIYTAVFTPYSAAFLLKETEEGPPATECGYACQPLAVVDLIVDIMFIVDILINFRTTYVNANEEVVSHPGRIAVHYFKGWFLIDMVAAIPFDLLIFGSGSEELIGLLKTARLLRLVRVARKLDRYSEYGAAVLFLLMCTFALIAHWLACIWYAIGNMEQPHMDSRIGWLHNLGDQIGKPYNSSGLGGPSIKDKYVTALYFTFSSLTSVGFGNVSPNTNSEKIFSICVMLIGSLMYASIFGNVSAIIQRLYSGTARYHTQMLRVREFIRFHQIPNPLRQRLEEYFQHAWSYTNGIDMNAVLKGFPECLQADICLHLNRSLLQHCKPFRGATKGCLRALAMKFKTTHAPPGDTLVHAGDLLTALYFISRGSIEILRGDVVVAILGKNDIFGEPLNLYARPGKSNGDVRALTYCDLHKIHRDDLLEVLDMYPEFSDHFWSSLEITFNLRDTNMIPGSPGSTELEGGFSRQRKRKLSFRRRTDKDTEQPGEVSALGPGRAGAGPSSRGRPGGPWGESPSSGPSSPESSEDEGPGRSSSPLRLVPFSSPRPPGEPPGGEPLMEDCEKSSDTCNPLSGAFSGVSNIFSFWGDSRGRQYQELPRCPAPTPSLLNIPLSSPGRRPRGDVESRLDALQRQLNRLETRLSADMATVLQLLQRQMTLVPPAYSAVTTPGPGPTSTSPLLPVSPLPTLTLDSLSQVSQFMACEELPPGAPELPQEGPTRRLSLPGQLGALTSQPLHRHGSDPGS

Row | SMILES | hERG current change (%, negative = inhibition) at 10uM
1 | Cc1cc(C)nc(NC(=O)c2csnn2)c1 | 17.8%
2 | COc1ccc(NC(=S)N2CCC(c3nc4ccccc4[nH]3)CC2)c(OC)c1 | -8.79%
3 | C=CCNc1nc(-c2ccc(O)c(C(N)=O)c2)cs1.Cl | -1.47%
4 | CC(=O)N1N=C(c2c(-c3ccccc3)c3cc(Br)ccc3[nH]c2=O)CC1c1ccco1 (stereo not shown) | -2.19%
5 | Cn1c(-c2ccccc2)cc(=O)c2ccccc21 | -2.4%
6 | COc1ccc(C2C(C(=O)c3ccco3)=C(O)C(=O)N2c2nnc(C)s2)cc1 (stereo not shown) | 15.4%
7 | COC(=O)c1ccsc1-n1cc(C#N)c(=O)n(C)c1=O | 11.9%
8 | Cn1cc(CN2CCC(CO)CC2)c(-c2ccc(Oc3ccccc3)cc2)n1 | -67.5%
9 | Cc1cccc(NC(=S)Nc2ccc(N3CCOCC3)cc2)c1C | 0.0685%
10 | Cc1ccc(C(=O)N/N=C/c2ccc(OC(=O)c3ccccc3Cl)cc2)cn1 | 14.4%
11 | FC(F)(F)C1CC(c2cccs2)Nc2ncnn21 (stereo not shown) | 10%
12 | O=C1c2ccccc2C(=O)N1CCC(c1ccc(F)cc1)c1ccco1 (stereo not shown) | -6.1%
13 | Cc1nn(Cc2cccc3ccccc23)c(C)c1NC(=O)c1cccnc1 | 6.74%
14 | O=C(OCC(=O)c1ccccc1Br)c1ccccn1 | 8.23%
15 | C(=N\c1ncnc2sccc12)/NOCc1ccccc1 | -12.6%
16 | Cc1cc(NC(=O)C2C3C(=O)N(Cc4ccc(Cl)cc4)C(C(=O)NC(C)(C)C)C34C=CC2(C)O4)no1 (stereo not shown) | 15.7%
17 | COC(=O)c1ccc(CSc2nnnn2-c2ccc(C)cc2C)o1 | -18.5%
18 | O=C(CSc1ncnc2c1cnn2-c1ccccc1)NC1CCS(=O)(=O)C1 (stereo not shown) | -10.2%
19 | COc1ccc(CNC(=O)C2CC(c3ccc(OC)cc3)=NO2)cc1 (stereo not shown) | 5.69%
20 | NC(=S)NCc1cccnc1 | 24.7%
21 | CCCCCCCOc1ccc(OC(=O)c2cccnc2)cc1 | 13.8%
22 | O=C1NC(c2ccccc2)=C(c2nc3ccccc3s2)C(c2ccccc2)N1 (stereo not shown) | -8.6%

Row | SMILES | hERG current change (%, negative = inhibition) at 10uM
23 | CCO[C@H]1OC(C(=O)N2CCN(Cc3ccc4c(c3)OCO4)CC2)=C[C@@H](C(C)(C)C)[C@@H]1CCCO | -40.6%
24 | O=C(c1ccc(Cl)c(S(=O)(=O)NCc2cccnc2)c1)N1CCCC1 | 7.22%
25 | COc1ccc(OC)c(NC(=O)CN2CCc3ccccc3C2)c1 | 0.823%
26 | CCOC(=O)N1CCN(C(=O)c2ccc(OC)cc2)CC1 | 19.8%
27 | COc1ccc(-n2c(C)c(C(C)=O)c3cc(OCC(N)=O)ccc32)cc1 | -12.9%
28 | C=CCn1c(Cc2ccc(OC)cc2)nnc1SCc1nc2ccccc2c(=O)[nH]1 | -11.7%
29 | Cc1ccc(-c2ccc(/C=C3\SC(N4CCOCC4)=NC3=O)o2)cc1 | -64.8%
30 | Cc1cc(Br)ccc1N=C1C(=O)Nc2ccccc21 | 7.54%
31 | Cc1cc(OC(C)C(=O)NC(Cc2c[nH]c3ccc(O)cc23)C(=O)O)c2c(C)cc(=O)oc2c1 (stereo not shown) | 6.77%
32 | COc1ccc(-c2noc(C3CCCN(C(=O)CCc4ccccc4)C3)n2)cc1 (stereo not shown) | -30.7%
33 | O=C(COc1ccc2ccccc2c1)N[C@@H](C(=O)O)c1ccc(O)cc1 | 20.5%
34 | Cc1ccc(NC(=O)CSCC(=O)OCc2cc(=O)oc3cc(O)ccc23)c(C)c1 | -53.2%
35 | COc1ccc(-n2c(Cc3cccn3C)nnc2SCC(=O)Nc2cc(Cl)ccc2OC)cc1 | -97.9%
36 | CCC(=O)NC(=S)NNC(=O)COc1ccc(Br)cc1 | 14.4%
37 | O=c1ccccn1CCOc1ccccc1Cl | 4.55%
38 | COc1ccccc1C(=O)Nc1ccc2c(c1)CCCN2C(=O)c1ccccc1 | -39.8%
39 | Cc1cc(NC(=O)CSc2nnc(-c3ccccc3Cl)o2)no1 | 14.7%
40 | CCC1(C)Cc2ccccc2-c2[nH]c(=S)[nH]c(=O)c21 (stereo not shown) | 14%
41 | COc1cccc(N2CCN(C(=O)c3ccc(N4C(=O)NC5CC4(C)Oc4ccccc45)cc3)CC2)c1 (stereo not shown) | 4.64%
42 | Cc1c(C(=O)OCC(=O)Nc2ccc(C(=O)N(C)C)cc2)oc2ccccc12 | -6.16%
43 | CC(C)CCn1c(SCC(=O)OCn2nnc3ccccc3c2=O)nc2ccccc2c1=O | -16.2%
